We go through 84 compounds from PubChem BioAssay AID1645887 (National Center for Advancing Translational Sciences (NCATS), 2021).

Several values for one entry are separate records, joined by “and”; a condition that tells them apart may be missing. Identical values can stand only once. About 40 (0.2%) of roughly 16,000 compounds were called active. Roughly 1% stayed inconclusive and do not appear here. Calls follow the shape of the dose curve; as a rule, active = well fitted activation curve with a large enough effect; inconclusive = small, poorly fitted or top-dose-only effect, or another doubt; inactive = no such curve, though single readings can be large or run the other way. This is one part of the list.
% is scaled to controls: 0 for no effect and ±100 for the full control effect.

Chain of UniProt Q8WZA2 (Q8WZA2 whole entry, looked up): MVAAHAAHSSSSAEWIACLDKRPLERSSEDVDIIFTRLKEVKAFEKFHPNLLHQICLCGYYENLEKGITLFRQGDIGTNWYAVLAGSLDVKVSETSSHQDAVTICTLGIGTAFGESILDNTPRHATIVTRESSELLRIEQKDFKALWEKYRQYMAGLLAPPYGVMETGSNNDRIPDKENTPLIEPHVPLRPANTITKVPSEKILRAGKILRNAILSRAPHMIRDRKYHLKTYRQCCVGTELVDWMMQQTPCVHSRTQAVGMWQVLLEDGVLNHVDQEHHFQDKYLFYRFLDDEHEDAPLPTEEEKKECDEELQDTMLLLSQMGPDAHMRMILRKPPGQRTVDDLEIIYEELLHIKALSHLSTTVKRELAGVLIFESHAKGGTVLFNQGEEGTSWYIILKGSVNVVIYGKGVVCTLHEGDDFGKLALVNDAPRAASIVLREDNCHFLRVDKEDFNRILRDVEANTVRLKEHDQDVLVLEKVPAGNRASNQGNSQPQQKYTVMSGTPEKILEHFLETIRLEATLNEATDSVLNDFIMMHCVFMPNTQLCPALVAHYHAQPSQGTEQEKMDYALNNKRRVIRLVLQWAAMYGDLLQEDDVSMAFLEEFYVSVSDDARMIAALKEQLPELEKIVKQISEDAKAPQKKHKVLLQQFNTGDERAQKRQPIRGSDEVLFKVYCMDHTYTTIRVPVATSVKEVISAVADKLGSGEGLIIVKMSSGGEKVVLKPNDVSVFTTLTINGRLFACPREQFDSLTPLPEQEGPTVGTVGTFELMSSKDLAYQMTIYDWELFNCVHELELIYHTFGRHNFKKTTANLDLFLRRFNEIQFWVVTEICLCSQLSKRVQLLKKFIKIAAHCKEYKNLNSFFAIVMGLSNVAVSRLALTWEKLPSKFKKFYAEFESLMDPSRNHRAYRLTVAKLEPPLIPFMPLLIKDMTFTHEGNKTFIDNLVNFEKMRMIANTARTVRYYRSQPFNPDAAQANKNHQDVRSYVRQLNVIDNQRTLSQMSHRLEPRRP

The target of this test is Rap guanine nucleotide exchange factor 4 (Homo sapiens) (UniProt Q8WZA2). Description: Validation qHTS for agonist of cAMP-regulated guanine nucleotide exchange factor 4 (EPAC2).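 Also: exchange makes BODIPY-GDP fluorescence drop when released from Rap1B; series mostly up to about 150 µM.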 To be noted: EPAC2 Rap1B BODIPY-GDP exchange, fluorescence; activation: stronger effect = higher value. Put shortly:
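Signal normalized against 6.5 mM cAMP as agonist control. Mix of EPAC2 (100 nM), RAP1B-BODIPY-GDP (250 nM) and GDP (50 uM) was read kinetically at 480/540 nm, every 5 min over 30 min, after 5 min room-temperature incubation with compound.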
On the technique in general: Quantitative high-throughput screening tests each substance at several concentrations.
Turning to `CC1(C)CCC2(C(=O)O)CC[C@]3(C)C(=CCC4[C@]5(C)CCC(O)C(C)(C)C5C(O)C[C@]43C)C2C1` (some centres undefined), the activation was inactive: -42.9%.

In the case of `CC(C)C(NS(C)(=O)=O)c1nnc2n1CCN(Cc1ccc(C#CC(C)(C)O)cc1)CC2` (centres undefined), the activation was inactive: -3.74%.

Regarding `CCC1CN(CC(=O)NCc2ccc3c(c2)OCO3)Cc2ccc(Cl)cc2O1` (centres undefined), the activation is inactive: -18.4%.

In the case of `C[N+]1(C)CCC(OC(=O)C(O)(c2ccccc2)C2CCCC2)C1` (centres undefined), the activation is inactive: -1.74% and inactive: -0.704%.

Regarding `C[N+](C)(CCOc1ccccc1)Cc1cccs1`, the activation was inactive: -2.61%.

`O=C(c1ccncc1)N1CCC2(CCCN(Cc3nccs3)C2)CC1`: the activation was inactive: -6.97%.

On to `CCCCCCCCCCCCCCCCCCOCC(O)CO` (centres undefined), for which the activation was inactive: -12.1%.

Take `O=C(c1cccc(F)c1)N1CCC2(CC1)CCN(c1cccc(-c3ccccc3)c1)CC2`: the activation was inactive: -0.482%.

Turning to `CS(=O)(=O)N1CCC2(CCCN(Cc3ccc(C#N)cc3)C2)CC1`, the activation was inactive: -11.2%.

As to `N#Cc1ccc(C(c2ccc(C#N)cc2)n2cncn2)cc1`, the activation is inactive: -4.99%.

For `O=c1c(-c2cc(F)cc(F)c2)nc2cncnc2n1Cc1ccccc1Cl`, the activation is inactive: 15.6%.

As for `CN(C)c1ncc2nc(-c3ccc(Cl)cc3)c(=O)n(C)c2n1`, the activation was inactive: 2.28%.

On to `Cc1ccc(-c2ccnc(-n3ncc(C(=O)NCCN4CCOCC4)c3C3CC3)n2)o1`, for which the activation was inactive: -14.9%.

For `CS(=O)(=O)Nc1cccc(-c2cc(Nc3ccccc3)ncn2)c1`, the activation is inactive: -2.12%.

In the case of `Cc1c(Cn2ccnc2)c2ccccc2n1CCC(=O)O`, the activation is inactive: -29.2%.

For the compound `O=c1c(-c2ccc(Cl)cc2)nc2cnc(Oc3ccccc3)nc2n1C1CC1`, the activation was inactive: -11.1%.

For the compound `O=C1CCN(Cc2ccccc2)CCN1[C@H](CO)c1ccccc1`, the activation was inactive: -17.4% and inactive: -4.28%.

On to `CC[C@@H]1[C@H]2CCCC(=O)N3CC[C@@H](C[C@@H]1OC(=O)Nc1ccc4c(c1)OCO4)[C@@H]23`, for which the activation is inactive: -21.7%.

On to `CCOC(=O)/C=C/c1ccc(C(F)(F)F)cc1S(=O)(=O)NC(C)(C)C`, for which the activation is inactive: -44.3%.

For the compound `CN(C)CC(C)(O)c1ccc2c(c1)CN(Cc1cccn1-c1ncccn1)CCO2` (centres undefined), the activation was inactive: 4.73%.

With `CC(=O)NC1C(O)C[C@@](O)(C(=O)O)OC1[C@@H](O)C(O)CO` (some centres undefined), the activation was inactive: -9.28%.

In the case of `CCCCCc1c2c(cc(O)c1C(=O)O)OC(=O)c1c(cc(OC)cc1C(=O)CCCC)O2`, the activation is inactive: 1.74%.

In the case of `O=C(Nc1cccc(F)c1)N1CCCC2(CCN(S(=O)(=O)c3ccccc3)CC2)C1`, the activation is inactive: 0.0038%.

Take `N[C@H](C(=O)O)c1ccc(O)c(C(=O)O)c1`: the activation was inactive: -18% and inactive: 5.5%.

Take `Cc1noc(C)c1-c1ccc2ncnc(NC3CC3)c2c1`: the activation was inactive: -22.6%.

In the case of `COc1ccc([C@@H]2CC(=O)c3c(O)cc(O)cc3O2)cc1O`, the activation is inactive: -2.33%.

As for `CC/C=C\C[C@H]1C(=O)CC[C@@H]1CC(=O)O`, the activation is inactive: -6.19%.

On to `CC1=C(CCC(=O)O)c2cc3nc(cc4[nH]c(cc5[nH]c(cc1n2)c(C)c5C(C)O)c(C)c4C(C)O)C(C)=C3CCC(=O)O` (centres undefined), for which the activation was inactive: 0.598%.

As to `CCCOC(=O)c1ccccc1`, the activation was inactive: -7.75%.

Turning to `COc1cc(=O)n2c(c1C(=O)NCc1ccco1)CCN(C(=O)c1ccc(C)c(C)c1)CC2`, the activation was inactive: -7.15%.

On to `Cc1nc2cnc(N(C)C)nc2n(Cc2cccs2)c1=O`, for which the activation is inactive: 0.113%.

As for `COc1cc(=O)n2c(c1C(=O)N(C)Cc1nonc1C)CCN(Cc1cc(F)ccc1F)CC2`, the activation is inactive: -23%.

Regarding `CN(C)CCCN1c2ccccc2Sc2ccc(C(F)(F)F)cc21`, the activation was inactive: -5.06% and inactive: -13.2%.

As for `O=c1cnc2cnc(N3CCOCC3)nc2n1Cc1cccs1`, the activation is inactive: -11.1%.

Turning to `Nc1c(CC(=O)O)cccc1C(=O)c1ccccc1`, the activation was inactive: -14.3% and inactive: 6.97%.

Take `O=Cc1ccccc1C=O`: the activation was inactive: 20.1%.

In the case of `O=C(NCc1cccnc1)[C@@H]1CC=C[C@@H]2CCN(C3CCCCC3)C(=O)[C@@H]21`, the activation is inactive: -16.8%.

`Oc1cc(O)c2c(c1)O[C@H](c1ccc(O)c(O)c1)[C@@H](O)C2`: the activation is inactive: 6.69% and inactive: -29.2%.

With `Cc1[nH]ccc2c1[nH]c1cc(=O)ccc12`, the activation was inactive: 0.528% and inactive: -30.4%.

On to `O=Cc1c2[nH]c3ccccc3c2cc2[nH]c3ccccc3c12`, for which the activation is inactive: -0.484% and inactive: -4.49% and inactive: 10.8%.

As for `CC(=O)Oc1ccccc1C(=O)Nc1ncc([N+](=O)[O-])s1`, the activation was inactive: 8.36%.

For the compound `CC(=O)OC1CCC2(C)C3CCC4(C)C(CC5CCCCC54C(C)=O)C3CC(=O)[C@@]2(O)C1` (some centres undefined), the activation is inactive: 4.1%.

As to `CCC(=O)OCC(=O)[C@@]1(OC(=O)CC)[C@@H](C)C[C@@H]2[C@H]3CCC4=CC(=O)C=C[C@]4(C)[C@@]3(F)[C@@H](O)C[C@@]21C`, the activation was inactive: -23.8%.

As for `COc1cccc(-c2nc(NCCc3c[nH]c4ccc(OC)cc34)c3ccccc3n2)c1`, the activation is inactive: 6.97%.

Take `C[N+]1(C)CCC(OC(=O)C(c2ccccc2)c2ccccc2)CC1`: the activation is inactive: -17.5% and inactive: 2.33% and inactive: -24.8%.

On to `O=C1CC(c2ccccc2O)Oc2ccc(O)cc21` (centres undefined), for which the activation was inactive: 4.28%.

Turning to `C#C[C@]1(O)CC[C@H]2[C@@H]3CCC4=C/C(=N/O)CC[C@@H]4[C@H]3CC[C@@]21CC`, the activation is inactive: 3.57%.

In the case of `Cc1c(-c2ccccc2)oc2cc(O)ccc2c1=O`, the activation is inactive: 2.61%.

Consider `CN(C)Cc1ccccc1-c1ccc2ncnc(NC3CCNCC3)c2c1`, for which the activation is inactive: -6.12%.

As to `CC(C)CN1CC[C@@]2(CCCN(C(=O)c3cccc(F)c3)C2)C1`, the activation is inactive: -15.1%.

With `COCCN(C)C(=O)c1cnn(-c2ncc3c(n2)-c2ccccc2CC3)c1C`, the activation was inactive: -14.3%.

Turning to `CCCCC(O)c1ccccc1` (centres undefined), the activation was inactive: -5.31%.

Take `Oc1ccccc1`: the activation is inactive: 14.1%.

`CCCCOCCOCCOCc1cc2c(cc1CCC)OCO2`: the activation was inactive: -16.8% and inactive: -17.7%.

With `O=c1cc(-c2ccccc2)oc2c(O)c(O)ccc12`, the activation was inactive: -13.4%.

For `CCN(CC)CCOC(=O)C1(C2CCCCC2)CCCCC1`, the activation is inactive: -1.9% and inactive: -1.5% and inactive: -13.4%.

Regarding `COc1ccc(Oc2ncc3nc(-c4ccc(Cl)cc4)c(=O)n(C4CC4)c3n2)cc1`, the activation was inactive: -6.17%.

Turning to `Cc1noc(C)c1-c1nc(NC2CC2)c2ccccc2n1`, the activation was inactive: -24.7%.

Consider `COc1nccc(-c2c(-c3ccc(F)cc3)ncn2C2CCC(O)CC2)n1` (centres undefined), for which the activation was inactive: -7.78%.

On to `COCCCCC(=NOCCN)c1ccc(C(F)(F)F)cc1`, for which the activation is inactive: -12.8% and inactive: -21%.

`CCNc1ncc2nc(-c3ccc(Cl)cc3)c(=O)n(Cc3cccc(OC)c3)c2n1`: the activation was inactive: 8.9%.

In the case of `c1ncc(-c2ccoc2)c(NC2CC2)n1`, the activation is inactive: -1.7%.

Turning to `COc1ccccc1C(=O)N[C@@H]1c2ccccc2C2(CCN(Cc3ccc4c(c3)OCO4)CC2)[C@H]1O`, the activation is inactive: -7.27%.

Turning to `OCCNCCCOc1cccc(Cl)c1Cl`, the activation is inactive: -3.05%.

`O=C(Nc1ccc(Cl)cc1)Nc1ccc(Cl)c(Cl)c1`: the activation is inactive: 2.17%.

On to `Cn1c(=O)c(-c2ccc(Cl)cc2)nc2cnc(Oc3ccccc3)nc21`, for which the activation is inactive: -6.28%.

Consider `CCNc1ncc2nc(CCc3ccccc3)c(=O)n(CCC#N)c2n1`, for which the activation was inactive: -29.2%.

Take `O=C(Nc1cccc(F)c1)N1CC2(CCN(C(=O)c3ccncc3)CC2)C1`: the activation was inactive: -11%.

In the case of `O=C1c2c(O)cccc2Cc2cccc(O)c21`, the activation was inactive: 0.232% and inactive: 3.88%.

Turning to `COc1ccc2[nH]c(=O)c3c(c2c1)OC(C)(C)C=C3`, the activation is inactive: -12.2% and inactive: -26.6%.

For `COc1cc2nc(C#Cc3nc4cc(OC)c(OC)cc4[nH]3)[nH]c2cc1OC`, the activation is inactive: -18.5%.

Consider `CN(C)c1ccc(/C=c2\[nH]c(=O)/c(=C\c3ccc(N(C)C)cc3)[nH]c2=O)cc1`, for which the activation was inactive: -18.1%.

With `CC(C)C[C@@H](N)C(=O)O`, the activation was inactive: -8.96%.

Turning to `C#CC(N)CCC(=O)O` (centres undefined), the activation is inactive: -29.1%.

Consider `N[C@H](CCCP(=O)(O)O)C(=O)O`, for which the activation is inactive: -12.2% and inactive: -10.3%.

With `O=c1c(-c2ccc(O)cc2)coc2c(C3OC(CO)C(O)C(O)C3O)c(O)ccc12` (centres undefined), the activation was inactive: -11.6%.

With `O=S(=O)(O)c1cc(N=C=S)ccc1/C=C/c1ccc(N=C=S)cc1S(=O)(=O)O`, the activation is inactive: -13.8%.

Regarding `COc1ccc(CN2[C@@H](CC(C)=O)c3ccc(/C=C/C(C)=O)cc3S2(=O)=O)cc1`, the activation is inactive: -20.2%.

In the case of `CN(C)c1ccc(-c2nc(Nc3ccncc3)c3ccccc3n2)cc1`, the activation was inactive: -5.29%.

As to `CCNc1ncc2nc(-c3cccc(C#N)c3)c(=O)n(C)c2n1`, the activation is inactive: 1.94%.

Turning to `COc1ccc(-n2c(=O)c(-c3cc(F)cc(F)c3)nc3cnc(N(C)C)nc32)cc1`, the activation is inactive: -8.8%.

`COc1cc(C(=O)OCCCN2CCCN(CCCOC(=O)c3cc(OC)c(OC)c(OC)c3)CC2)cc(OC)c1OC`: the activation is inactive: -2.18% and inactive: -19.1% and inactive: -37.4%.

For the compound `COC(=O)C1=C(C)NC(C)=C([N+](=O)[O-])C1c1ccccc1C(F)(F)F` (centres undefined), the activation is inactive: -19% and inactive: -22.6% and inactive: -30.4%.

Take `CC(C)c1c(C(=O)N(C)Cc2cccc3ncccc23)cnn1-c1nccc(-c2ccco2)n1`: the activation was inactive: -26.4%.
